Out of some 150,000 compounds screened, about 540 (0.36%) showed an effect of 50% or more. The list shows a part of the results.

The term % Inhibition denotes the relative decrease from the control value, in per cent.

The subject of the experiment is Plasmodium falciparum. The experiment is described as follows: Primary screen in NF54 nanoGlo assay, in single point, at 2uM, 72h; a lower Z score goes with more inhibition. The following applies: timepoint 72 hour. In kind it is functional, Erythrocyte.
Take `Cc1nc2ccccn2c1CNC(=O)[C@H]1CCO[C@@H]1c1cccnc1`: the “% Inhibition” value is reported as -16% and the Z score is listed as 1.81.
On to `COc1ccc(C(C)CC(=O)N2CCCC(c3nnn[nH]3)C2)cc1` (stereo not given), for which the “% Inhibition” value came to 4% and the Z score is recorded as -0.64.
On the same counts, the results for `CCCNC(=O)CN1C(=O)[C@H]2CCCC2=Nc2cc(C)c(C)cc21` are 19% and -2.11.
Consider `O=C(NCC1(c2cccs2)CC1)c1ccc(S(=O)(=O)N2CCOCC2)cc1`, for which the “% Inhibition” value was -7% and the Z score is on record as 1.31.
For `Cc1nn(-c2nc3ccccc3[nH]2)c2c1[C@H](c1ccc(C(C)(C)C)s1)CC(=O)N2`, the “% Inhibition” value stood at 0% and the Z score is 0.03.
On the same counts, the results for `CON(Cc1c(Cl)cncc1Cl)CC1CCOCC1` are -8% and 1.14.
With `O=C(N[C@@H](N1CCCC1)C(Cl)(Cl)Cl)c1ccccc1Cl`, the “% Inhibition” value is -7% and the Z score is given as 0.85.
Turning to `O=C(Nc1nnc(C(F)F)s1)c1n[nH]c2ccccc12`, the “% Inhibition” value is listed as -11% and the Z score is 1.93.
For the compound `O=C(CN1C(=O)COc2ccc(Cl)cc21)NCCCN1CCOCC1`, the “% Inhibition” value was -6% and the Z score is 0.76.
As to `CC(CNC(=O)C(C)NC(=O)C1CCC1)Oc1ccc(Cl)cc1` (stereo not given), the “% Inhibition” value was 5% and the Z score is -0.87.
With `CCN(CC)C(=O)N1CCC(C(=O)Nc2c(C)n(C)n(-c3ccccc3)c2=O)CC1`, the “% Inhibition” value is reported as -6% and the Z score was 0.52.
As for `CCC[C@]1(CO)CCCN(Cc2cncn2C)C1`, the “% Inhibition” value was 2% and the Z score is -0.21.
On the same counts, the results for `CCCCN1CCN(S(=O)(=O)c2cc(-c3nnc(C4CCCC4)o3)co2)CC1` are 7% and -0.87.
Take `N#Cc1cnc2ccc(Cl)cc2c1N1CCC(Cc2ccccc2)CC1`: the “% Inhibition” value was found to be 4% and the Z score is -0.52.
With `O=C(NCc1ccccc1)c1nn(-c2ccc(Cl)cc2)c(=O)n(Cc2ccccc2F)c1=O`, the “% Inhibition” value is listed as 5% and the Z score was -0.62.
For the compound `O=C1N(CC2CCC2)CCC[C@@]12CCN(Cc1noc(C3CCCC3)n1)C2`, the “% Inhibition” value is reported as -15% and the Z score came out at 2.33.
`CCc1c(N[C@@H](C)c2cnn(C)c2)cnn1CC(C)C`: the “% Inhibition” value is reported as -6% and the Z score is listed as 0.65.
As to `COc1ccc(OC)c(CNc2nncn2C2CC2)c1`, the “% Inhibition” value was -14% and the Z score turned out to be 2.03.
Turning to `N#CCC1(CNC(=O)N2CCCC2C2CCCO2)CC1` (stereo not given), the “% Inhibition” value was -9% and the Z score worked out at 1.26.
In the case of `O=C(Oc1ccc(OCC2CC2)cc1)c1cnccn1`, the “% Inhibition” value is on record as -3% and the Z score stood at 0.26.
For `O=C(CNC(=O)C1CCCCC1)NCCCN1CCOCC1`, the “% Inhibition” value is given as -4% and the Z score is 0.56.
On to `C=CCNC(=S)NS(=O)(=O)c1ccc(Cl)cc1`, for which the “% Inhibition” value turned out to be 33% and the Z score was -4.42.
Taken in the same sequence, the figures for `FC(F)(F)c1cccc(-c2nc([C@@H]3CN(Cc4ccccc4)CCO3)no2)n1` were -10% and 1.24.
On to `CN(CCc1ccccc1)C[C@@H]1OC[C@H](NC(=O)c2cccc(F)c2)[C@H]1O`, for which the “% Inhibition” value amounted to 34% and the Z score is on record as -3.86.
Turning to `Cc1ccnc(N(C)C[C@H](C)C(=O)O)c1Cl`, the “% Inhibition” value was found to be 0% and the Z score is -0.03.
Turning to `Cc1ccc(Br)cc1NC(=O)N(C)CCc1cnccn1`, the “% Inhibition” value is -16% and the Z score was 1.41.
Turning to `CC(C)[C@@H]1CN(C)CCN1Cc1cnc2ncccn12`, the “% Inhibition” value is -8% and the Z score is 0.84.
For the compound `Cc1nc(C)c(C)c(N2CCC3(CC2)C[C@@H]3C(=O)N2CCCC2)n1`, the “% Inhibition” value is listed as -10% and the Z score is listed as 1.33.
Consider `Cc1nc[nH]c1CN1CCN(C(=O)c2ccccc2O)[C@H]2CS(=O)(=O)C[C@H]21`, for which the “% Inhibition” value is on record as -8% and the Z score stood at 1.51.
With `COCC(=O)NC[C@H]1CCN(Cc2ccc(Cl)cc2)C[C@H]1N(C)C`, the “% Inhibition” value is given as 4% and the Z score was -0.81.
On the same counts, the results for `O=C(Cn1cnnn1)N1CCC[C@H](c2[nH]ncc2-c2ccccc2)C1` are -12% and 1.57.
Regarding `CCn1c(-c2cc(NC(=O)[C@H](C)Oc3ccccc3)[nH]n2)cc2cc(OC)ccc21`, the “% Inhibition” value was determined as 26% and the Z score is -3.58.
As for `CS(=O)(=O)c1ccc(NC(=O)N2C[C@H]3CC=CC[C@H]3C2)cc1`, the “% Inhibition” value is recorded as -15% and the Z score was 2.1.
As for `N#CC1(N2CCCC2)CCN(CC2CC2)CC1`, the “% Inhibition” value worked out at 9% and the Z score is recorded as -1.32.
On the same counts, the results for `Cc1ccc(C(C)(C)CNC(=O)C2C[C@H]3C[C@@H](N)[C@H]3C2)nc1` (stereo not given in full) are 2% and -0.25.
With `Cc1n[nH]c(C)c1CNC(=O)C[C@@H](c1cccc(O)c1)c1cccc(Cl)c1`, the “% Inhibition” value was -6% and the Z score came out at 0.73.
With `O=S(=O)(C1C[C@@H]2CC[C@H]1C2)N1CC2CCC(O)C2C1` (stereo not given in full), the “% Inhibition” value is listed as -17% and the Z score amounted to 2.79.
Consider `CC(C)NC(=O)C(C#N)C(=O)C1CC1c1ccc(F)cc1F` (stereo not given), for which the “% Inhibition” value is listed as -2% and the Z score is 0.34.
In the case of `Cc1ccc(-n2cc(S(=O)(=O)NCC3CC3)cn2)cc1S(=O)(=O)NCC1CC1`, the “% Inhibition” value was -5% and the Z score was found to be 0.61.
Consider `O=C(CCCc1nnc2ccccn12)Nc1ccncc1`, for which the “% Inhibition” value is -14% and the Z score came to 1.8.
As to `Cc1ccc([C@@H](O)CNC(=O)c2cccn(C)c2=O)o1`, the “% Inhibition” value is recorded as -9% and the Z score is 1.
Turning to `C[C@H]1CN(c2ncnc3c2cnn3C)c2ccccc21`, the “% Inhibition” value is given as -12% and the Z score is given as 1.54.
Take `C[C@@H](CCNC(=O)c1cccc(-c2cc(C#N)ccc2O)c1)N1CCOCC1`: the “% Inhibition” value is -14% and the Z score is recorded as 1.82.
Taken in the same sequence, the figures for `CCCNC(=O)c1nc(N2CCCC2)c2c(C)cc(C)nc2n1` were -6% and 0.92.
As for `Cc1cncc(C(=O)Nc2cc(Br)c(=O)n(C)c2)c1`, the “% Inhibition” value is listed as -15% and the Z score is recorded as 1.77.
On the same counts, the results for `O=C(NC(=O)C(F)(F)F)Nc1cc(C(F)(F)F)ccc1Cl` are -14% and 1.61.
Take `COc1ccc(-c2c(C(=O)Nc3ccc(C)cc3Cl)nn3c(C)cc(=O)[nH]c23)cc1`: the “% Inhibition” value is on record as -15% and the Z score amounted to 1.78.
Taken in the same sequence, the figures for `Cn1cc(CCC(=O)NCc2ccc3c(c2)nc(C2CC2)n3C)cn1` were -4% and 0.76.
Consider `CCOC(=O)C1(Cc2ccc(Cl)cc2)CCN([C@@H](C)Cc2cc(C)ccn2)CC1`, for which the “% Inhibition” value is -8% and the Z score worked out at 1.05.
With `CCOc1cccc(Cc2noc([C@H]3CCCc4[nH]nnc43)n2)n1`, the “% Inhibition” value is listed as 2% and the Z score was -0.4.
As for `C#CCCN1CCN(C(=O)C2CC(=O)N(C)C2c2cccnc2)CC1` (stereo not given), the “% Inhibition” value turned out to be 8% and the Z score was -0.87.
On the same counts, the results for `Cc1cnc(C)c(-c2cc(O)c3c(c2)CN(C2CCOCC2)CCO3)n1` are -5% and 0.68.
Taken in the same sequence, the figures for `CCCN(CC(F)F)S(=O)(=O)N1CC(C)OCC1C` (stereo not given) were -6% and 0.75.
On to `CCOCC(=O)Nc1cc(-c2cc3cc(OC)ccc3n2CC)n[nH]1`, for which the “% Inhibition” value is -17% and the Z score worked out at 2.05.
Turning to `COCCN1C(=O)CC[C@]2(C(=O)N(C)C)CCCC[C@@H]12`, the “% Inhibition” value is -15% and the Z score stood at 1.5.
Regarding `CC1CN(Cc2ccccn2)CCC1Nc1cccc(F)c1C#N` (stereo not given), the “% Inhibition” value worked out at 2% and the Z score is on record as -0.24.
Taken in the same sequence, the figures for `CCc1nn(C)c(NC(=O)[C@H](OC)c2ccccc2)c1C` were -6% and 1.04.
Taken in the same sequence, the figures for `Cc1oc(C2CC2)nc1C(=O)NC[C@@H]1CC(=O)N(C(C)(C)C)[C@H]1c1cnn(C)c1` were -10% and 1.12.
As to `O=S(=O)(C1COC1)N1CC2(CCCOC2)C1`, the “% Inhibition” value came out at 31% and the Z score was -3.47.
In the case of `COC(=O)N[C@@H](CC(C)C)C(=O)Nc1ccc(CO)c(CO)c1`, the “% Inhibition” value was -3% and the Z score came out at 0.4.
As to `Cc1ccc(CN2CCC(N3C(=O)N4CCCC4(C)C3=O)C2=O)cc1` (stereo not given), the “% Inhibition” value was -14% and the Z score came to 2.03.
As for `CC(C)(C)n1ncnc1-c1ccc(-n2cnnc2)nc1`, the “% Inhibition” value is reported as -12% and the Z score amounted to 1.88.
As for `Clc1cccc2ccc(CN3CCO[C@H](c4cccnc4)C3)nc12`, the “% Inhibition” value is -24% and the Z score is reported as 2.58.
In the case of `CCN1CCCN(C(=O)CCCc2c[nH]c3ccccc23)CC1=O`, the “% Inhibition” value is listed as -6% and the Z score is 0.83.
On the same counts, the results for `COCCN(CCN(C)C)C(=O)c1[nH]ncc1Br` are -4% and 0.46.
Taken in the same sequence, the figures for `c1ccc(-n2cnnc2NCc2cnc(C3CC3)s2)cc1` were -6% and 0.89.
For `C[C@@H]1[C@@H](c2ccc(Br)cc2)OCCN1C(=O)NCc1ccn(C)n1`, the “% Inhibition” value amounted to 7% and the Z score is on record as -1.34.
Taken in the same sequence, the figures for `CC(=O)CCC(=O)Nc1ccc(C)nc1C` were -7% and 1.08.
On the same counts, the results for `NC(=O)c1cc2c(nc1N1C[C@H]3CC[C@@H](C1)N(CC1CC1)C3)CCC2` are 10% and -1.42.
Taken in the same sequence, the figures for `Cc1ccc(O)c(C(=O)N2CC[C@H](O)[C@@H](O)C2)c1` were -3% and 0.32.
`CNc1cc(-c2ccc(C(=O)N3CCC[C@H](C(N)=O)C3)cc2)nc(N)n1`: the “% Inhibition” value is on record as 4% and the Z score is -0.73.
Taken in the same sequence, the figures for `O=C(NCc1ccc(F)cc1)Nc1ccc2c(c1)N(C(=O)c1ccccc1)CCC2` were 1% and -0.08.
Taken in the same sequence, the figures for `COc1ccc(CCCN2CCC(n3cncn3)CC2)cc1F` were -12% and 1.93.
`Cc1ccc(C[C@H](C)NC(=O)CNC(=O)CCC(C)C)s1`: the “% Inhibition” value was -17% and the Z score is recorded as 1.58.
`O=C(NC1CCCC1)c1cncn1-c1ccc(-c2cc(C(F)(F)F)cc(C(F)(F)F)c2)cc1`: the “% Inhibition” value is listed as -17% and the Z score came out at 1.71.
Taken in the same sequence, the figures for `Cc1cc(NC(=O)c2ccccc2)nc(-c2ccccc2)n1` were -10% and 1.35.
Turning to `CCC(=O)N[C@H]1CCN(c2ncc(Cl)cn2)C12CCCC2`, the “% Inhibition” value is on record as -9% and the Z score amounted to 0.9.
In the case of `O=C(NC[C@H]1CCCO1)Nc1cccc(-c2cnc[nH]2)c1`, the “% Inhibition” value is reported as -7% and the Z score stood at 1.39.
Taken in the same sequence, the figures for `O=C(CN1CCN(S(=O)(=O)c2cccc(F)c2)CC1)NCC1(N2CCOCC2)CCCCC1` were -32% and 3.79.
`Cc1ccnc(C(=O)N[C@@H]2CNC(=O)C2)n1`: the “% Inhibition” value was 0% and the Z score is recorded as -0.08.
On the same counts, the results for `CCNc1ncc(CN(Cc2cccnc2)C2CCCCC2)cn1` are -2% and 0.37.
Turning to `CCc1nnc(CN(C)Cc2nnc(-c3cccnc3)o2)o1`, the “% Inhibition” value stood at 2% and the Z score was -0.27.
As to `CCC(=O)N1C[C@@H](COc2ccccc2)[C@H](C2CCN(C(=O)C(C)C)CC2)C1`, the “% Inhibition” value is reported as -1% and the Z score is listed as 0.16.
Regarding `O=C(c1cccc2ccccc12)n1nnc2ccccc21`, the “% Inhibition” value amounted to 2% and the Z score is given as -0.4.
Consider `CCCN1CCC[C@H](NCc2ccc(CC)cn2)C1`, for which the “% Inhibition” value was -11% and the Z score is listed as 1.74.

The values above are taken from ChEMBL document CHEMBL4888484, “Replenishing the malaria drug discovery pipeline: Screening and hit evaluation of the MMV Hit Generation Library 1 (HGL1) against asexual blood stage Plasmodium falciparum ,using a nano luciferase reporter read-out” (2022).
